{"source": "PubChem BioAssay AID1508642", "about": "(National Center for Advancing Translational Sciences (NCATS), 2021)", "note": "Hit rate of the full screen: of about 43,000 compounds, about 200 (0.47%) were called active. Another 12% or so got no clear call; they are omitted. The call rests on the fitted dose curve; in most records, active means well fitted cell-killing curve with a large enough effect; inconclusive means small, poorly fitted or top-dose-only effect, or effect the other way; inactive means flat fitted curve, though single readings scatter. The list shows a part of the results. On the % scale 0 is the no-effect control and ±100 the full control effect."}
{"experiment": "Cell viability qHTS assay in S16 Pmp22-F2sN cells; further: nearly all actives have a fitted effect of over 65% in size", "conditions": "S16 Pmp22-F2sN Schwann cells (luciferase reporters placed in the Pmp22 gene) viability, CellTiter-Glo, 24 h; series mostly up to 57.5 µM; activity change, negative = cytotoxicity: at the top concentration", "description": "Assay Provider: Jim Inglese Ph.D. National Center for Advancing Translational Science, National Institutes of Health, Rockville, MD CMT is a heterogeneous group of neurological disorders that affect approximately 1 in 2,500 people. In particular, the most common form of CMT, CMT1A is genetically linked to the duplication of the PMP22 gene which leads to Schwann cell overexpression, thus manifesting itself as a typical case of dose-sensitive diseases. To identify small molecule compounds that can mediate the expression of PMP22 we developed a phenotypic assay screening strategy by utilizing genome editing techniques to construct Schwann cell lines containing novel reporter technology to monitor the transcriptional or translational regulation of PMP22. For high sensitivity we use a bioluminescent reporter system embedded in the 3' UTR of the PMP22 gene (S16(c9) Pmp22-F2sN) to identify compounds that inhibit gene expression. […] We can further discriminate the effect of all transcriptionally active molecules on PMP22 translation or stability with an assay that incorporates a short NLuc peptide (HiBiT) at the C-terminus of expressed PMP22 (S16(f8) PMP22-HiBiT) allowing alpha complementation and luminescence detection of membrane-associated PMP22 protein. These assays were screened against the NCATS Sytravon Library Collection. Miniaturization of these assays to 1536-well plate format for quantitative high throughput screening (qHTS) yielded rich data sets immediately from the qHTS assay (S16(c9) Pmp22-F2sN), when compared with data from a cell viability assay (Cell TiterGlo) to identify compounds that decreased the output signals through cellular toxicity to streamline the selection process of actives for subsequent characterization using the HiBiT assay (S16(f8) PMP22-HiBiT).\nCell viability assay in S16 Pmp22-F2sN cells PROTOCOL TABLE (format as described by Inglese J, Shamu CE and Guy RK. 2007) SEQUENCE No. (e.g., 1, 2, 3, etc.); […] (e.g., Cells, Incubation, Reagent, etc.); VALUE and DESCRIPTION. 1. Cells. Add 500-1,000 cells in 4 uL in growth media (DMEM High Glucose, No Phenol Red media + 10% heat-inactivated FBS + 1% Pen/Strep supplemented media) per well into Greiner 1536-well white/solid bottom high base, TC-treated plates. 2. Compounds. Library compounds and controls added at 23nL per well, transferred by Pin Tool. 3. Incubation. Incubate plates at 37C, 5% CO2, 95% RH for 24 h. 4. Reagent. Add 3uL CellTiter-Glo per well of Greiner 1536-well plates. 5. Incubation. Incubate plates at room temperature for 15 min., protect from light. 6. Detector. FLuc luminescence measured using CCD-based camera (Viewlux). NOTES (numbers refer to Sequence numbers above; values are from representative experiments) 6. Luminescence Read: Clear filter; Exposure = 1 sec, Gain = High, Speed = Slow, Binning = 2X REFERENCES: 1. Inglese J, Shamu CE and Guy RK, Reporting data from high throughput screening of small molecule libraries, Nature Chemical Biology, 2007, 3(8): 438-441. doi.org/10.1038/nchembio0807-438 2. Yasgar A, Shinn P, Jadhav A, Auld DS, Michael S, Zheng W, Austin CP, Inglese J and Simeonov A, Compound Management for Quantitative High-Throughput Screening. J. Assoc. Lab. Auto., 2008, 13: 79-89. doi: 10.1016/j.jala.2007.12.004"}
{"smiles": "COc1ccc(NC(=O)c2ccc3nc(CCc4ccccc4)oc3c2)c(OC)c1", "activity change, negative = cytotoxicity": "inactive: -2.48%"}
{"smiles": "Cc1ccccc1NC(=O)N1CCc2c(sc3c2CCCC3)C1c1ccccc1", "note": "(stereo unspecified)", "activity change, negative = cytotoxicity": "inactive: -23.1%"}
{"smiles": "CCOc1ccc(C(=O)Nc2c(C(=O)c3ccc(OC)cc3)oc3ccccc23)cc1", "activity change, negative = cytotoxicity": "inactive: 19.7%"}
{"smiles": "CCC(=O)Nc1ccc(CC)cc1-c1nc2ccccc2n(CC(=O)Nc2cccc(Cl)c2)c1=O", "activity change, negative = cytotoxicity": "inactive: -1.24%"}
{"smiles": "CCCCCn1cc2c(c1-c1ccc(Br)cc1)c(=O)n(C)c(=O)n2C", "activity change, negative = cytotoxicity": "inactive: -10.4%"}
{"smiles": "CCc1ccccc1NC(=O)Cn1c(=O)n(-c2ccc(C)cc2)c(=O)c2c1c1cc(C)ccc1n2C", "activity change, negative = cytotoxicity": "inactive: -1.76%"}
{"smiles": "COc1ccc(OC)c(NC(=O)c2cc3cc(C)ccc3n2C)c1", "activity change, negative = cytotoxicity": "inactive: 0.0667%"}
{"smiles": "COc1cccc(NC(=O)Cn2nnc(-c3nc(-c4ccccc4)no3)c2N)c1", "activity change, negative = cytotoxicity": "inactive: 1.11%"}
{"smiles": "Cc1nc2ncnn2c(C)c1CCC(=O)N1CCN(c2ccccc2)CC1", "activity change, negative = cytotoxicity": "inactive: 0.118%"}
{"smiles": "O=C(Cn1c(=O)oc2cc(Cl)ccc21)Nc1cccc(C(F)(F)F)c1", "activity change, negative = cytotoxicity": "inactive: -3.12%"}
{"smiles": "CCS(=O)(=O)c1ncc(N(Cc2ccccc2)Cc2ccco2)c(C(=O)Nc2ccc(C)c(C)c2)n1", "activity change, negative = cytotoxicity": "inactive: 0.0434%"}
{"smiles": "CCn1c(NCc2ccc(OC)cc2)nc2ccccc21", "activity change, negative = cytotoxicity": "inactive: 6.65%"}
{"smiles": "CCOc1ccc(NC(=O)c2ccc3c(=O)n4nc(Nc5ccccc5C)sc4nc3c2)cc1", "activity change, negative = cytotoxicity": "inactive: 17.7%"}
{"smiles": "COc1cc(C(CC(=O)Nc2ccc(F)cc2F)N2Cc3ccccc3C2=O)cc(OC)c1OC", "note": "(stereo unspecified)", "activity change, negative = cytotoxicity": "inactive: 11.6%"}
{"smiles": "COCCNC(=O)CCc1c(C)nc2c(-c3ccc(F)cc3)c(C)nn2c1C", "activity change, negative = cytotoxicity": "inactive: -8.04%"}
{"smiles": "COc1ccc(CCNC(=O)CCCCn2c(=O)c3ccccc3n(Cc3ccccc3C)c2=O)cc1OC", "activity change, negative = cytotoxicity": "inactive: 4.96%"}
{"smiles": "COc1ccc(N(CC(=O)NCc2ccccc2Cl)S(=O)(=O)c2c(C)nn(C)c2C)cc1", "activity change, negative = cytotoxicity": "inactive: 4.74%"}
{"smiles": "COc1ccc(CCNC(=O)Cn2c(=O)nc(-c3ccccc3)c3ccccc32)cc1OC", "activity change, negative = cytotoxicity": "inactive: 25.2%"}
{"smiles": "CCOc1ccccc1CNC(=O)CCCn1ncn2c(cc3occc32)c1=O", "activity change, negative = cytotoxicity": "inactive: 18.3%"}
{"smiles": "CCOc1ccc(C(=O)c2cn(CC(=O)Nc3ccc(F)cc3)c3cc4c(cc3c2=O)OCO4)cc1", "activity change, negative = cytotoxicity": "inactive: -1.03%"}
{"smiles": "CN(C)CCCN(C(=O)c1ccc(Br)s1)c1nc2ccc(F)cc2s1", "activity change, negative = cytotoxicity": "inactive: -0.799%"}
{"smiles": "Cc1ccc2cccc(NC(=O)COc3cc(C)c(Cl)c(C)c3)c2n1", "activity change, negative = cytotoxicity": "inactive: 0.801%"}
{"smiles": "CCCSCCCNC(=O)C1CCCN(c2nn3cc(-c4ccc(OC)cc4)nc3s2)C1", "note": "(stereo unspecified)", "activity change, negative = cytotoxicity": "inactive: -6.75%"}
{"smiles": "Cn1c(=O)c(=O)n(C)c2cc(NC(=O)c3cccc(F)c3)c(Cl)cc21", "activity change, negative = cytotoxicity": "inactive: -3.79%"}
{"smiles": "CCCCN(CC)CCNC(=O)CN1C(=O)COc2ccc(S(=O)(=O)N3CCCC3)cc21", "activity change, negative = cytotoxicity": "inactive: 12.2%"}
{"smiles": "Cc1ccc(CCNC(=O)CCn2nc(-c3ccccc3)ccc2=O)cc1", "activity change, negative = cytotoxicity": "inactive: 19.8%"}
{"smiles": "Cc1nn(CC(=O)Nc2ccccc2C(F)(F)F)c(=O)c2cccn12", "activity change, negative = cytotoxicity": "inactive: 8.59%"}
{"smiles": "Cc1ccc(NS(=O)(=O)c2ccc3[nH]c(=O)oc3c2)c(C)c1", "activity change, negative = cytotoxicity": "inactive: -3.92%"}
{"smiles": "CCc1cccc(C)c1NC(=O)c1cc(S(=O)(=O)NCc2ccccc2Cl)ccc1F", "activity change, negative = cytotoxicity": "inactive: -20%"}
{"smiles": "CC(=O)NCC(c1ccc2c(c1)OCO2)N1CCN(c2ccccc2)CC1", "note": "(stereo unspecified)", "activity change, negative = cytotoxicity": "inactive: 11.9%"}
{"smiles": "Fc1ccc(C(NCCc2ccc(Cl)cc2)c2nnc(-c3ccccc3)o2)c(Cl)c1", "note": "(stereo unspecified)", "activity change, negative = cytotoxicity": "inactive: 2.75%"}
{"smiles": "COc1ccccc1CNC(=O)CCn1c(=O)c2ccccc2n(CC(=O)Nc2ccc(C)cc2Cl)c1=O", "activity change, negative = cytotoxicity": "inactive: -4.88%"}
{"smiles": "CCOC(=O)c1c(S(=O)(=O)NCC(=O)N2CCN(c3ccccc3)CC2)c(C)n(C)c1C", "activity change, negative = cytotoxicity": "inactive: 0.834%"}
{"smiles": "CCCN(CCC)C(=O)Cn1c(=O)n(-c2ccccc2)c(=O)c2c3c(sc21)CCCC3", "activity change, negative = cytotoxicity": "inactive: 1.64%"}
{"smiles": "O=S(=O)(NCc1nc2cccnc2n1Cc1ccccc1)c1ccc2c(c1)CCCC2", "activity change, negative = cytotoxicity": "inactive: -5.41%"}
{"smiles": "N#C/C(=C/c1ccc(Cl)cc1)c1nc(-c2ccc(Br)cc2)cs1", "activity change, negative = cytotoxicity": "inactive: 2.75%"}
{"smiles": "CCOC(=O)c1ccc(NC(=O)/C(C#N)=C/c2ccc(OC)cc2)cc1", "activity change, negative = cytotoxicity": "inactive: 2.77%"}
{"smiles": "CCc1ccc(-n2c(=O)c3c(C)c(C)sc3n(CC(=O)NCc3ccc(C)cc3)c2=O)cc1", "activity change, negative = cytotoxicity": "inactive: 23.7%"}
{"smiles": "CCCCc1nn2c(=O)cc(COC(=O)c3cccc(NC(=O)CCc4ccccc4)c3)nc2s1", "activity change, negative = cytotoxicity": "inactive: -2.24%"}
{"smiles": "Cc1ccc(CSc2oc(-c3ccco3)nc2S(=O)(=O)c2ccc(C)cc2)cc1", "activity change, negative = cytotoxicity": "inactive: 3.91%"}
{"smiles": "COc1cc(/C=C(\\C#N)c2nc3ccccc3[nH]2)cc(Cl)c1OCc1ccccc1Cl", "activity change, negative = cytotoxicity": "inactive: -2.13%"}
{"smiles": "CCOc1ccc(NC(=O)CSc2nc(C)c(C(=O)Nc3ccccc3)c(-c3ccc(Cl)cc3)c2C#N)cc1", "activity change, negative = cytotoxicity": "inactive: -1.97%"}
{"smiles": "CCc1cccc(-n2c(C)nc3c(cnn3-c3ccc(C)c(C)c3)c2=O)c1", "activity change, negative = cytotoxicity": "inactive: 1.84%"}
{"smiles": "CCn1c2ccccc2c2cc(CN3CCN(Cc4ccccc4Cl)CC3)ccc21", "activity change, negative = cytotoxicity": "inactive: -3.76%"}
{"smiles": "COc1cccc(NC(=O)CSc2nc3cc(OC)c(OC)cc3c3nc(-c4ccccc4)nn23)c1", "activity change, negative = cytotoxicity": "inactive: -1.5%"}
{"smiles": "COc1cc(OC)c(NC2(c3ccccc3)C(=O)c3ccccc3C2=O)cc1Cl", "activity change, negative = cytotoxicity": "inactive: 0.5%"}
{"smiles": "O=C(Nc1ccc(OC(F)(F)F)cc1)c1nc2ccccc2nc1N1CCCCC1", "activity change, negative = cytotoxicity": "inactive: -4.84%"}
{"smiles": "CCc1ccc(NC(=O)Cn2nc3c4ccccc4n(Cc4ccccc4)cc-3c2=O)cc1", "activity change, negative = cytotoxicity": "inactive: -4.51%"}
{"smiles": "C[C@H](NC(=O)OC(C)(C)C)c1nnc(SCc2c(F)cccc2Cl)o1", "activity change, negative = cytotoxicity": "inactive: 2.92%"}
{"smiles": "CCOc1ccc(-c2cc(OC(=O)c3ccc(OC)cc3)c3c(C)oc(C)c3c(=O)c2)cc1", "activity change, negative = cytotoxicity": "inactive: -0.148%"}
{"smiles": "CCOc1ccc(C(=O)N(Cc2sccc2C)C2CCS(=O)(=O)C2)cc1", "note": "(stereo unspecified)", "activity change, negative = cytotoxicity": "inactive: -3.53%"}
{"smiles": "O=C1CC(c2cccc(O)c2)c2c(nc(SCc3ccccc3F)[nH]c2=O)N1", "note": "(stereo unspecified)", "activity change, negative = cytotoxicity": "inactive: -10.2%"}
{"smiles": "O=C(c1ccc(CSc2nc3ccncc3n2Cc2ccc(F)cc2)cc1)N1CCCCCC1", "activity change, negative = cytotoxicity": "inactive: -19.9%"}
{"smiles": "COCCCNC(=O)c1cc2c(=O)oc3ccc(C)cc3c2s1", "activity change, negative = cytotoxicity": "inactive: -29.8%"}
{"smiles": "CCc1nc2ccc(C(=O)N3CCN(c4cccc(C)c4C)CC3)cc2nc1CC", "activity change, negative = cytotoxicity": "inactive: 6.76%"}
{"smiles": "Cc1ccc(-c2nc3c4ccccc4[nH]c(=O)n3n2)cc1", "activity change, negative = cytotoxicity": "inactive: 5.02%"}
{"smiles": "O=C(Nc1c(C(=O)Nc2ccc(F)cc2)oc2ccccc12)c1cc2ccccc2o1", "activity change, negative = cytotoxicity": "inactive: -3.87%"}
{"smiles": "COc1ccc(Cn2c(=O)c3cccnc3n(CC(=O)Nc3ccc(C)c(F)c3)c2=O)cc1", "activity change, negative = cytotoxicity": "inactive: 11%"}
{"smiles": "COc1cc2c(cc1OC)C(COc1ccc3c(C)cc(=O)oc3c1)N(C(=O)C(C)C)CC2", "note": "(stereo unspecified)", "activity change, negative = cytotoxicity": "inactive: 5.16%"}
{"smiles": "CCOC(=O)c1nc(Nc2ccc(C(C)=O)cc2)c2ccccc2n1", "activity change, negative = cytotoxicity": "inactive: 1.38%"}
{"smiles": "Cc1cccc(-n2ccnc2SCC(=O)Nc2ccc(F)cc2F)c1C", "activity change, negative = cytotoxicity": "inactive: 4.13%"}
